# Screen size: about 280,000 compounds; about 540 (0.19%) were called active. Inconclusive means that the source gave no clear call. Such entries were picked first, then a sample of the others. Calls follow the shape of the dose curve; as a rule, active = well fitted activation curve with a large enough effect; inconclusive = small, poorly fitted or top-dose-only effect; inactive = flat fitted curve, though single readings scatter. Where the call is inconclusive, the potency comes from a doubtful curve fit.
# Assay: Quantitative High-Throughput Screen for Regulators of Epigenetic Control; also: nearly all actives have a fitted effect of over 60% in size
# Details: murine LDR cells, GFP reporter derepression, 30 h; series mostly up to 53.9 µM
# Summary of the method: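 Murine LDR cells carrying a silenced, genomically integrated CMV-driven GFP reporter were exposed to compound for 30 hours at 37 C. After PBS washes, GFP-positive cells (20–120 um objects) were counted by laser-scanning microplate cytometry.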
# Potency is read from the fitted curve at half-maximal effect; tags tell the direction and shape of the fitted curve.
row,Structure (SMILES),Potency
1,Cc1ccc(S(=O)(=O)N(Cc2cc3ccccc3[nH]c2=O)c2cccc(C)c2)cc1,"inconclusive: 15.8 µM [activator, single point]"
2,Cc1cc(NC(=O)c2cc(-c3ccc(C)s3)nc3ccccc23)no1,"inconclusive: 7.08 µM [activator, partial curve]"
3,Cc1c(C(=O)NCC2COc3ccccc3O2)oc2ccc(S(=O)(=O)N3CCOCC3)cc12 (stereo not drawn),inactive
4,CSc1ccccc1-c1nnc(NC(=O)c2ccc3c(c2)OCCO3)o1,inactive
5,NCCc1c(-c2ccccc2)n(-c2ccccc2)c2ccccc12,"inconclusive: 5.01 µM [activator, single point]"
6,Nc1ncn([C@@H]2O[C@H](CO)[C@@H](O)[C@H]2O)c(=O)n1,"inconclusive: 1.41 µM [activator, partial curve]"
7,CC[n+]1c(/C=C2\Sc3ccccc3N2C)ccc2cccc(C)c21,"inconclusive: 0.398 µM [activator, full curve, poor fit]"
8,CC(=O)N1CCc2c(sc3c2c(=O)n(-c2ccccc2)c(=O)n3CC(=O)Nc2cc(C)cc(C)c2)C1,"inconclusive: 35.5 µM [activator, single point]"
9,COc1ccc(CN(CCN(C)C)c2ccccn2)cc1,"inconclusive: 6.31 µM [activator, single point]"
10,O=C(CCc1ccccc1)Nc1ccccc1,"inconclusive: 22.4 µM [activator, single point]"
11,CSc1cccc(NC(=O)c2cc3c(COC(C)=O)cnc(C)c3oc2=O)c1,inactive
12,O=C(CC(c1cccs1)N1Cc2ccccc2C1=O)Nc1ccc(F)cc1 (stereo not drawn),inactive
13,O=C(c1cc2c(Cl)nc3ccccc3c2s1)N1CCCCC1,inactive
14,Cc1cc(C)c2nc3sc(C(=O)N4CCOCC4)c(N)c3cc2c1,"inconclusive: 35.5 µM [activator, single point]"
15,CCC1(C(=O)OC)NC(c2ccco2)C2C(=O)N(c3ccccc3)C(=O)C21 (stereo not drawn),"inconclusive: 3.16 µM [activator, single point]"
16,O=C(Cc1ccccc1)NNC(=O)Nc1ccc(Cl)c(Cl)c1,inactive
17,Cc1ccc2c(c1)c1c(c(=O)n(-c3ccccc3)c(=O)n1Cc1ccccc1C)n2C,"inconclusive: 35.5 µM [activator, single point]"
18,COc1ccc(Cn2c(=O)c3oc4ccccc4c3n(CC(=O)Nc3c(C)cccc3C)c2=O)cc1,"inconclusive: 20 µM [activator, single point]"
19,CN(C)c1ccc(/C=C2\NC(=S)N(Cc3ccccc3)C2=O)cc1,active: 7.08 µM
20,CC1CCC(C(=O)NC(C(=O)OCC(=O)c2ccccc2)C(C)C)CC1 (stereo not drawn),inactive
21,O=S(=O)(c1ccc(Cl)cc1)N1CCN(Cc2ccc(O)c3ncccc23)CC1,"inconclusive: 14.1 µM [activator, single point]"
22,CN(C)c1ccc(C(CNC(=O)c2ccccc2)N2CCc3ccccc32)cc1 (stereo not drawn),"inconclusive: 14.1 µM [activator, single point]"

row,Structure (SMILES),Potency
1,Cc1cc(=O)[nH]c(SCC(=O)Nc2ccc(S(=O)(=O)N3CCCCC3)cc2)n1,"inconclusive: 0.158 µM [activator, full curve, poor fit]"
2,Cc1ccc(S(=O)(=O)CCSc2nc(C)cc(C(F)(F)F)c2C#N)cc1,"inconclusive: 25.1 µM [activator, single point]"
3,CCOC(=O)c1c(C)sc(-c2c(-c3cccc(Cl)c3)[nH]c3c2c(=O)n(C)c(=O)n3C)c1O,"inconclusive: 31.6 µM [activator, single point]"
4,O=c1c2[nH]c3cccc(Cl)c3c2ncn1Cc1ccncc1,"inconclusive: 3.55 µM [activator, single point]"
5,COc1ccc(-c2[nH]c(-c3ccc(SC)cc3)nc2SCC(=O)Nc2nccs2)cc1,"inconclusive: 22.4 µM [activator, single point]"
6,COc1cccc2c(=O)c3c(cnn3C)n(C)c12,inactive
7,CSc1nsc(/C=C/Nc2cccc(Cl)c2)c1C#N,active: 7.08 µM
8,O=C(CSc1nnc(-c2cccc(F)c2)c(-c2cccc(F)c2)n1)NC1CCCCC1,"inconclusive: 35.5 µM [activator, single point]"
9,CC(=O)c1c(N)[nH]c(-c2ccccc2)nc1=S,"inconclusive: 25.1 µM [activator, single point]"
10,CCOC(=O)c1c(C)c(-c2ccccc2)n(CC(=O)Nc2cc(C)cc(C)c2)c1C,"inconclusive: 35.5 µM [activator, single point]"
11,COc1ccc(NC(=O)CSc2ccc3c4c(cccc24)C(=O)c2ccccc2-3)cc1,"inconclusive: 12.6 µM [activator, partial curve]"
12,CC(C)CC(=O)Nc1nnc(S(=O)(=O)N2CCc3ccccc32)s1,"inconclusive: 11.2 µM [activator, partial curve]"
13,CCc1cccc(NC(=O)Cn2nc3c4cc(F)ccc4n(Cc4cccc(C)c4)cc-3c2=O)c1,"inconclusive: 31.6 µM [activator, single point]"
14,COc1ccc(/C=C/C(=O)c2ccc(Cl)s2)cc1O,"inconclusive: 35.5 µM [activator, single point]"
15,CCc1c(C)[nH]n(-c2nc(-c3cccc([N+](=O)[O-])c3)cs2)c1=O,"inconclusive: 5.01 µM [activator, single point]"
16,Cc1ccccc1NS(=O)(=O)c1nnc(NC(=O)c2ccco2)s1,"inconclusive: 25.1 µM [activator, single point]"
17,O=C(Nc1ccc(Cl)c(-c2nc3cc(Cl)ccc3o2)c1)c1cc2ccccc2o1,"inconclusive: 22.4 µM [activator, single point]"
18,CCc1c(C)nc2cc(-c3ccc(OC)c(OC)c3)nn2c1N1CCCC1,inactive
19,CC1=C/C(=N\NC(=S)NCc2ccccc2)CC1,active: 12.6 µM
20,CCN1C(=O)/C(=C/c2ccc(C)o2)N(C)C1=S,"inconclusive: 17.8 µM [activator, single point]"
21,Cc1ccc(NC(=O)c2c(C)nc3sc(C(=O)Nc4ccc(F)cc4)c(N)c3c2-c2ccccc2Cl)c(C)c1,"inconclusive: 35.5 µM [activator, single point]"

# From PubChem BioAssay AID1865 (National Center for Advancing Translational Sciences (NCATS), 2009)
